Assay results published in EP3858439A1 (priority 2020, dated 2021).
Structures can show the parent of a compound that is named as a salt. Where two headings read alike, the source gives them in different places.

Molecular target: human α2δ-1 subunit of Cav2.2 calcium channel (Homo sapiens, UniProt P54289)
Experiment: Binding assay to human α2δ-1 subunit of Cav2.2 calcium channel ([3H]-Gabapentin displacement)
Protocol: Binding assay to human α2δ-1 subunit of Cav2.2 calcium channel.
Human α2δ-1 enriched membranes (2.5 µg) were incubated with 15 nM of radiolabeled [3H]-Gabapentin in assay buffer containing Hepes-KOH 10 mM, pH 7.4.
NSB (non specific binding) was measured by adding 10 µM pregabalin. The binding of the test compound was measured at either one concentration (% inhibition at 1 or 10 µM) or five different concentrations to determine affinity values (Ki). After 60 min incubation at 27 °C, binding reaction was terminated by filtering through Multiscreen GF/C (Millipore) presoaked in 0.5 % polyethyleneimine in Vacuum Manifold Station, followed by 3 washes with ice-cold filtration buffer containing 50 mM Tris-HCI, pH 7.4.
Filter plates were dried at 60 °C for 1 h and 30µl of scintillation cocktail were added to each well before radioactivity reading.
Readings were performed in a Trilux 1450 Microbeta radioactive counter (Perkin Elmer).

[1] = read-out: Binding α2δ-1, Table 2, human α2δ-1 enriched membranes, 15 nM [3H]-Gabapentin, 60 min at 27 °C

Sequence of human α2δ-1 subunit of Cav2.2 calcium channel (P54289 25-1103): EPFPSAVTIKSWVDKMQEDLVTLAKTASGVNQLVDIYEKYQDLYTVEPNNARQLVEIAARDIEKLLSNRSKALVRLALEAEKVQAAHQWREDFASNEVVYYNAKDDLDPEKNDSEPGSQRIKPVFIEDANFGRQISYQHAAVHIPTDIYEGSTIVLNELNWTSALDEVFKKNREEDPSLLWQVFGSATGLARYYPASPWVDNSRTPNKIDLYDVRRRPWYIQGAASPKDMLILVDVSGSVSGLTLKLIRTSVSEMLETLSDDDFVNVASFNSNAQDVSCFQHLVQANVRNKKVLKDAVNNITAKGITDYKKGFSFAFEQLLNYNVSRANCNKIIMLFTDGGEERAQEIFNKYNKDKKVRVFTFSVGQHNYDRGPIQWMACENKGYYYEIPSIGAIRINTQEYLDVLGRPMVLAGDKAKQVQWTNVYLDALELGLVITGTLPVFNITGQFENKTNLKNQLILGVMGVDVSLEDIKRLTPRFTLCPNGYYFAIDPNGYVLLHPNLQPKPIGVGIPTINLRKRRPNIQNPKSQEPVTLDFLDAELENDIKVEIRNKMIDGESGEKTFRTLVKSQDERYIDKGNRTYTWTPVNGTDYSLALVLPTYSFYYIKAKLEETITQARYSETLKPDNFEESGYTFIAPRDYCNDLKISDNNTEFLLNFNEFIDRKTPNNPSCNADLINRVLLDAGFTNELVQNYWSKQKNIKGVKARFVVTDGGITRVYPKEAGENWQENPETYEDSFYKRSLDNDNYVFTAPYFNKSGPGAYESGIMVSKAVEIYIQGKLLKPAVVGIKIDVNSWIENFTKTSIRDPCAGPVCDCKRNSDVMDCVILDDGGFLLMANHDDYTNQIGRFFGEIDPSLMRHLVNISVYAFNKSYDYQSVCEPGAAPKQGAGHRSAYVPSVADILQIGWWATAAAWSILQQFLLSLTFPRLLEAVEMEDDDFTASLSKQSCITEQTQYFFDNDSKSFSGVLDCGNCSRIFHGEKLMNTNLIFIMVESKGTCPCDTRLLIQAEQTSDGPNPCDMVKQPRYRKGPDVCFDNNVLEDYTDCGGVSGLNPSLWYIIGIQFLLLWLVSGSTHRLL

| SMILES | Ki [nM] | Ki [1] [nM] |
| --- | --- | --- |
| CN(C)C1(c2ccccc2)CCN(C(=O)[C@@H](CN)[C@@H]2CCCc3ccccc32)CC1 (racemic) [Example 77, (RS)-3-Amino-1-(4-(dimethylamino)-4-phenylpiperidin-1-yl)-2-((SR)-1,2,3,4-tetrahydronaphthalen-1-yl)propan-1-one] | 500 to 5000 | 500 to 5000 |
| CN(C)C1(c2ccccc2)CCN(C(=O)[C@@H](CN)[C@H]2CCCc3ccccc32)CC1 (racemic) [Example 78, (RS)-3-amino-1-(4-(dimethylamino)-4-phenylpiperidin-1-yl)-2-((RS)-1,2,3,4-tetrahydronaphthalen-1-yl)propan-1-one] | 500 to 5000 | 500 to 5000 |
| CNC[C@@H](C(=O)N1CCC(c2ccccc2)(N(C)C)CC1)[C@@H](C)c1ccccc1 [Example 1, (2S,3R)-1-(4-(Dimethylamino)-4-phenylpiperidin-1-yl)-2-((methylamino)methyl)-3-phenylbutan-1-one dihydrochloride] | < 500 | < 500 |
| CNC[C@@H](C(=O)N1CCC(c2ccc(F)cc2)(N(C)C)CC1)[C@@H](C)c1ccccc1 [Example 2, (2S,3R)-1-(4-(dimethylamino)-4-(4-fluorophenyl)piperidin-1-yl)-2-((methylamino)methyl)-3-phenylbutan-1-one] | < 500 | < 500 |
| CNC[C@@H](C(=O)N1CCC(c2cccc(F)c2)(N(C)C)CC1)[C@@H](C)c1ccccc1 [Example 3, (2S,3R)-1-(4-(dimethylamino)-4-(3-fluorophenyl)piperidin-1-yl)-2-((methylamino)methyl)-3-phenylbutan-1-one] | < 500 | < 500 |
| CNC[C@@H](C(=O)N1CCC(NC)(c2ccccc2)CC1)[C@@H](C)c1ccccc1 [Example 4, (2S,3R)-1-(4-(methylamino)-4-phenylpiperidin-1-yl)-2-((methylamino)methyl)-3-phenylbutan-1-one] | < 500 | < 500 |
| CN(C)C1(c2ccccc2)CCN(C(=O)[C@H](CN)C(C)(C)c2ccccc2)CC1 [Example 5, (S)-2-(aminomethyl)-1-(4-(dimethylamino)-4-phenylpiperidin-1-yl)-3-methyl-3-phenylbutan-1-one] | 500 to 5000 | 500 to 5000 |
| CC[C@@H](c1ccccc1)[C@@H](CN)C(=O)N1CCC(NC)(c2ccccc2)CC1 [Example 6, (2S,3R)-2-(aminomethyl)-1-(4-(methylamino)-4-phenylpiperidin-1-yl)-3-phenylpentan-1-one dihydrochloride] | < 500 | < 500 |
| C[C@@H](c1ccccc1)[C@@H](CN)C(=O)N1CCC(c2ccccc2)(N(C)C)CC1 [Example 7, (2S,3R)-2-(aminomethyl)-1-(4-(dimethylamino)-4-phenylpiperidin-1-yl)-3-phenylbutan-1-one dihydrochloride] | < 500 | < 500 |
| CC[C@@H](c1ccccc1)[C@@H](CN)C(=O)N1CCC(c2ccccc2)(N(C)C)CC1 [Example 8, (2S,3R)-2-(aminomethyl)-1-(4-(dimethylamino)-4-phenylpiperidin-1-yl)-3-phenylpentan-1-one dihydrochloride] | < 500 | < 500 |
| CNC1(c2ccccc2)CCN(C(=O)[C@H](CN)[C@@H](C)c2ccccc2)CC1 [Example 9, (2S,3R)-2-(aminomethyl)-1-(4-(methylamino)-4-phenylpiperidin-1-yl)-3-phenylbutan-1-one] | < 500 | < 500 |
| CC[C@@H](c1ccccc1)[C@@H](CN)C(=O)N1CC(c2ccccc2)(N(C)C)C1 [Example 10, (2S,3R)-2-(aminomethyl)-1-(3-(dimethylamino)-3-phenylazetidin-1-yl)-3-phenylpentan-1-one] | < 500 | < 500 |
| CC[C@@H](c1cccc(F)c1)[C@@H](CN)C(=O)N1CCC(NC)(c2ccccc2)CC1 [Example 11, (2S,3R)-2-(aminomethyl)-3-(3-fluorophenyl)-1-(4-(methylamino)-4-phenylpiperidin-1-yl)pentan-1-one] | < 500 | < 500 |
